{"source": "paper PMC12136788", "binders": {"B1": {"name": "chr12:67691335:67691336:+_ENSG00000111530_ENST00000540319|hu_hu|FALSE|FALSE (ssRNA)", "RNA": "GGGAGUUCUACAGUCCGACGAUCCAUAGAAUCAUUUUUGGACAACUCUGACAACAGAUGUUCAAUAAGAUCUACAAAAACUAUAUUUCCACAGCUCAUAACCAGAUGGCCAAGAGCGAUAAUGGUUCUUUUCCUCACUGCAAGCAACAGAGGAUUGAGCAUCA"}, "B2": {"name": "chr3:52742126:52742127:+_ENSG00000114902_ENST00000602728|hu_hu|motif|central (ssRNA)", "RNA": "GGGAGUUCUACAGUCCGACGAUCGAAACAUUAAAAUGGUUAACUCAUAAUGAAUUAUAAAACUUUGAUAGUUACAUUGUACGGUCAUUUAUGAGGCAUUUAUUUUUCAUUAUUUACACCUGAAAGAAACUUCAUACUUGUGUGCAACAGAGGAUUGAGCAUCA"}, "B3": {"name": "64356465_64356585_95_CDS_ENSG00000118482_ENST00000393387|human|control|control (ssRNA)", "RNA": "GGGAGUUCUACAGUCCGACGAUCGUCCUCUAAGACAUUUUGACUUGCACUAAAAUCCUCACAGACUUCAUUCUCCAGGUUGGAUCCUAGAAAUAGGGCAUCAUCUAAGUGUUCAGUAGGAAUUAAAUGAUUAAAUGUAUCAACCAACAGAGGAUUGAGCAUCA"}, "B4": {"name": "chr1:154963231:154963232:+_ENSMUSG00000042751_ENSMUST00000043313|mus_hu|motif|central (ssRNA)", "RNA": "GGGAGUUCUACAGUCCGACGAUCCUUGGCCUUCUCUACUGGGUGUGGCCCUGAUGAACUCACUGAGUGCUGAGGCUGGCGGCAAUGUCCUAUCAGAGGGGAAGUAAUACCACAGGAGCACAUCAAGACUACAAACAUAAAGAACAACAGAGGAUUGAGCAUCA"}, "B5": {"name": "chr5:121768680:121768681:+_ENSMUSG00000042744_ENSMUST00000119892|mus_hu|motif|central (ssRNA)", "RNA": "GGGAGUUCUACAGUCCGACGAUCUUGGGCAGUUUUCUUUUUGUCGCCUGUGGAUAGUCCACUCACAGUCUCUGGGUUGAUAGACUCGGCAGGUGGCCCAAUGCUGACGAUGAGGCCUGACUGUGCCCACUUGGUGGCUUUCCGCAACAGAGGAUUGAGCAUCA"}, "B6": {"name": "chr4:11166509:11166510:-_ENSMUSG00000040738_ENSMUST00000108319|mus_mus|FALSE|FALSE (ssRNA)", "RNA": "GGGAGUUCUACAGUCCGACGAUCUUGAGAGUUAUUAUCAGAAGAAGGUACAAGAACAUCACACGCUUGACAAUAGCCAGCUAACCGCUUCUCAUCUAUGGUACAAUGAAGAGAUAAUGAACCUAUCUCUGCAAGUAGUUCUUUCAACAGAGGAUUGAGCAUCA"}, "B7": {"name": "chr7:17147909:17147910:-_ENSMUSG00000058230_ENSMUST00000075845|mus_hu|FALSE|FALSE (ssRNA)", "RNA": "GGGAGUUCUACAGUCCGACGAUCCUUACGUUUGGCUGAAUAAAAAACAAUGUACCCAUGAACCAACCGGCUCUUUCUGAUGCUAAAGGAGGAAUGGUAUGAAAGAACAGACAGUUCAAUCCGCUUCUUGUGCAGUCCGAUUGGCAACAGAGGAUUGAGCAUCA"}, "B8": {"name": "90017834_90017954_1224_CDS_ENSMUSG00000057706_ENSMUST00000082237|mouse|control|control (ssRNA)", "RNA": "GGGAGUUCUACAGUCCGACGAUCCAGGCGUGAAGUAGCAGCUGCGCUGCCGCUGGUCCCACCACCGAAGUAAGAGUCUGUGGAUGCGCUGCCAAGCGAGCUGGAGCUGUCGUUGCGAUAGCUGGAGAAGGGCUUGCGGCCAGGCAACAGAGGAUUGAGCAUCA"}, "B9": {"name": "chr1:23636438:23636439:-_ENSG00000125944_ENST00000302271|hu_hu|FALSE|FALSE (ssRNA)", "RNA": "GGGAGUUCUACAGUCCGACGAUCUUGUAGGGCAGAUUUCAAAAAGGUGUGAAGUUAUAACAAUUUAAAAACACAGUUAACCUACUUCUAGGAAUGCAAAACAUACAAUCAUAGGUUAUUUUCAAUACAAGAAAACUUAAAUUUCAACAGAGGAUUGAGCAUCA"}, "B10": {"name": "chr6:112015657:112015658:-_ENSG00000010810_ENST00000368667|hu_hu|motif|central (ssRNA)", "RNA": "GGGAGUUCUACAGUCCGACGAUCAGCAAUCUUGCAUAUGAGUCCAUUCCCCACUAGAAUGUUUGCUGAUCGCAGAUCUCGGUGGAUAUAAUUCAUGCGCUCGAUGUAAGCCAUUCCUGCAGCCACCUGUGCUGCCAUGUCCACCAACAGAGGAUUGAGCAUCA"}, "B11": {"name": "105372790_105372910_1294_CDS_ENSG00000107957_ENST00000369774|human|control|control (ssRNA)", "RNA": "GGGAGUUCUACAGUCCGACGAUCCUUGUCCCCAGACGCCUUCUUGUUCAGCAGGUUGCUGAUCUCCAUGAUGUUCCCAAUGAUCUCCACUGGGCCGGCCAGGUUCUUCUUCCGGGUUGGCAGGUCAUCCUUGGCCUUCUUCAGCAACAGAGGAUUGAGCAUCA"}, "B12": {"name": "chr1:163117127:163117128:-_ENSG00000143248_ENST00000313961|hu_mus|hu_hu_hu_mus_False|48_48 (ssRNA)", "RNA": "GGGAGUUCUACAGUCCGACGAUCUGCUACAAAGGAUGUAACUCAACUCACAGGGCAACUUUUGGAAGCCUGACCAGAUGACUACUUGAUUAACUCCUUAUAAAAUUCAGAGCGCACAAAGCGGGGCAGAGAAUCCUUCUCCAUCAACAGAGGAUUGAGCAUCA"}, "B13": {"name": "chr2:14037654:14037655:+_ENSMUSG00000026718_ENSMUST00000102960|mus_mus|motif|central (ssRNA)", "RNA": "GGGAGUUCUACAGUCCGACGAUCAUGACCCUUAUUUAAUACAUUGCUUACUUCACUAGCAAAGUCUCUUGAACAUACUUCGGAGUGAAAAAUUUUGCCACAGUUUGAUACACAUGCUCCCAGAAGAGUUAAGGCUUGCAUAGCCAACAGAGGAUUGAGCAUCA"}, "B14": {"name": "95778887_95780000_1775_3pUTR_ENSMUSG00000064210_ENSMUST00000071874|mouse|control|control (ssRNA)", "RNA": "GGGAGUUCUACAGUCCGACGAUCGAGUAAUAGUUGACAAACUGGAACAAGAACAUCUUCAUGGUCAGGCUGUUCUCAUAAUCCGUCUGGGUCCUUGGGAGCUCGAAGUUGGUGAUCAUGAUGGCCACCUUCUCGUAGAUCGUGCAACAGAGGAUUGAGCAUCA"}, "B15": {"name": "111180571_111180691_72_5pUTR_ENSG00000186298_ENST00000335007|human|control|control (ssRNA)", "RNA": "GGGAGUUCUACAGUCCGACGAUCACACCUCCUUUCCCACGCCACGAGCAGAGGCGGUGGUGGCGGCGGUGGCAGCAGCCGCGGCGGGUCCCCCCCCUGCCACCCCGCUCCCUACUUCCUCCUUCUCUCCCCACUGGAACCACGCAACAGAGGAUUGAGCAUCA"}, "B16": {"name": "chr12:39756943:39756944:-_ENSG00000139116_ENST00000544797|hu_hu|FALSE|FALSE (ssRNA)", "RNA": "GGGAGUUCUACAGUCCGACGAUCUGUUUGGCUAUUACCCCCGAGGGAAUCCUGUAGUAGUCUUGUUAGCUUGGAAUCUCUAUAGGGGACAUGUGUGGCCCUCUUGCUCUUGUCUCCCAAGGCACUUAUUACAUUGCCAAGUGCCAACAGAGGAUUGAGCAUCA"}, "B17": {"name": "107600220_107600950_2570_CDS_ENSG00000091136_ENST00000393561|human|control|control (ssRNA)", "RNA": "GGGAGUUCUACAGUCCGACGAUCCUGGCCUCCGUUGGGAUCACACACGGAACUUAACGAACCCUGAGGGUCGCAUUCACAAGCCAGGCCUGUCUGGUGUAACAGGGCAGAAAUGCUAAAGAUGAUGUUUCUGCAAACAUCUGUCAACAGAGGAUUGAGCAUCA"}, "B18": {"name": "chr7:125341739:125341740:-_ENSMUSG00000030655_ENSMUST00000032891|mus_mus|motif|central (ssRNA)", "RNA": "GGGAGUUCUACAGUCCGACGAUCUCUGUAUAGAACAUCUGUUACGUAUGCCUCUGUAAUUGGUGGACCCCGAAUUGGGCGGAAGCGUUCCCCAAUGCUCCUCACCACAGUACUGAACACACGGAGAAGUGCUGCCAGCUUUGGCAACAGAGGAUUGAGCAUCA"}, "B19": {"name": "chr10:36854569:36854570:-_ENSMUSG00000069662_ENSMUST00000092584|mus_mus|motif|central (ssRNA)", "RNA": "GGGAGUUCUACAGUCCGACGAUCAAACCACAGCCAAAUGUACUUUUGAUGGCAUGCAAGGCCUUCCUAAAAAAUUAAUCGGAGACCGGGAAGUCAGCCUCAGAACAUAAAAAAACACAACAAAUUUGUACAUUUUAUUCACAUCAACAGAGGAUUGAGCAUCA"}, "B20": {"name": "chr8:121872745:121872746:+_ENSMUSG00000031839_ENSMUST00000034300|mus_mus|motif|central (ssRNA)", "RNA": "GGGAGUUCUACAGUCCGACGAUCCUUUGUGGGGACAGUGACAUAGAUUGCCUUCUAAGUCAUCAAAACUGGCUUUGAGGCGGAGCCUCCAGACACCAGAAUCCUGAAUGUAAAUCUGUCUUCUUUAAUCAAUAAUAGAACUCACAACAGAGGAUUGAGCAUCA"}, "B21": {"name": "chr7:54825262:54825263:-_ENSG00000132432_ENST00000352861|hu_hu|hu_hu_hu_mus_False|78_78 (ssRNA)", "RNA": "GGGAGUUCUACAGUCCGACGAUCCUGCCGGCUGGGCUCCACAAACUGCAUUACCUGCAUGACUGCCGUUGGAUGGCGGAUUGAGAGCGUAGAGACACGUAGCUCAGGAGAGAACCGAGCCCAACGGAACCGGAAGCUGGCAACCAACAGAGGAUUGAGCAUCA"}, "B22": {"name": "21160599_21167274_402_CDS_ENSMUSG00000024317_ENSMUST00000052396|mouse|control|control (ssRNA)", "RNA": "GGGAGUUCUACAGUCCGACGAUCAUGUAUUCCACUUUCUCUCAUUGCAGUCAGGAAACAUUUUCUACAGAAAACGUGCUGACAGGCCGCGGUCCGCACCGGCGUCUUGAGCACCUCCUGACAGACAGGGCAGUAGAAAUCAUCCAACAGAGGAUUGAGCAUCA"}}, "note": "The other results are listed elsewhere or left out.", "data": [{"target": "T1, UNK ZnF1-3 (human, UniProt Q9C0B0 31-174)", "T1 sequence": "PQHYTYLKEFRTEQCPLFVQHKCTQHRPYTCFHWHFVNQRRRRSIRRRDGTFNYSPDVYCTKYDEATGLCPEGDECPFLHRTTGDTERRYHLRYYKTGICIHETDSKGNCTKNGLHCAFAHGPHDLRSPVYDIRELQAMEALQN", "assay": "nsRBNS (natural sequence RNA bind-n-seq); RBNS binding buffer (assumed for nsRBNS): 25 mM Tris pH 7.5, 150 mM KCl, 3 mM MgCl2, 0.01% Triton X-100, 500 ug/ml BSA, 20 U/ml SUPERase-In, 4 C; UNK is unkempt and MSI1 is Musashi-1; names of the RNAs are library labels; protein concentration not given here; high values mean tight binding", "units": {"binding signal": "enrichment R"}, "values": [{"binder": "B1", "binding signal": 0.926}, {"binder": "B2", "binding signal": 0.856}, {"binder": "B3", "binding signal": 1.62}, {"binder": "B4", "binding signal": 1.36}, {"binder": "B5", "binding signal": 0.469}, {"binder": "B6", "binding signal": 1.06}, {"binder": "B7", "binding signal": 1.19}, {"binder": "B8", "binding signal": 0.811}, {"binder": "B9", "binding signal": 1.19}, {"binder": "B10", "binding signal": 1.08}, {"binder": "B11", "binding signal": 0.501}, {"binder": "B12", "binding signal": 1.17}, {"binder": "B13", "binding signal": 1.55}, {"binder": "B14", "binding signal": 0.59}, {"binder": "B15", "binding signal": 0.865}, {"binder": "B16", "binding signal": 0.626}, {"binder": "B17", "binding signal": 1.05}, {"binder": "B18", "binding signal": 0.822}, {"binder": "B19", "binding signal": 1.7}, {"binder": "B20", "binding signal": 1.23}, {"binder": "B21", "binding signal": 1.46}, {"binder": "B22", "binding signal": 0.889}]}]}
